# Laboratory results reported in the supplement of paper PMC8728848.
# Some of the results follow.
# Assays:
# Experiment in all cases: glycan array binding signal (z-score within array); higher = stronger binding
# Settings in all cases: glycan notation: IUPAC condensed, linker removed
# [1] = biological target: Gal(b1-4)GlcNAc(b1-2)[Gal(b1-4)GlcNAc(b1-4)]Man(a1-3)[Gal(b1-4)GlcNAc(b1-2)[Gal(b1-4)GlcNAc(b1-6)]Man(a1-6)][GlcNAc(b1-4)]Man(b1-4)GlcNAc(b1-4)GlcNAc
# How it was run: (§1)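 Columns mapping to the same glycan were averaged after glycan names were converted to IUPAC-condensed notation. The data come from 3228 arrays in the Consortium for Functional Glycomics database, limited to those with an available protein sequence. Binding is reported as a within-array Z-score averaged across arrays of one protein sequence and across linkers.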
# [2] = biological target: Gal(b1-4)GlcNAc(b1-2)[Gal(b1-4)GlcNAc(b1-4)]Man(a1-3)[GlcNAc(b1-4)][Gal(b1-4)GlcNAc(b1-2)Man(a1-6)]Man(b1-4)GlcNAc(b1-4)GlcNAc
# How it was run: as §1
# [3] = biological target: Gal(b1-4)GlcNAc(b1-2)[Gal(b1-4)GlcNAc(b1-4)]Man(a1-3)[GlcNAc(b1-4)][Gal(b1-4)GlcNAc(b1-2)[Gal(b1-4)GlcNAc(b1-6)]Man(a1-6)]Man(b1-4)GlcNAc(b1-4)GlcNAc
# How it was run: as §1
# [4] = biological target: Gal(b1-4)GlcNAc(b1-2)[Gal(b1-4)GlcNAc(b1-6)]Man(a1-6)[Gal(b1-4)GlcNAc(b1-2)Man(a1-3)]Man(b1-4)GlcNAc(b1-4)GlcNAc
# How it was run: as §1
# [5] = biological target: Gal(b1-4)GlcNAc(b1-2)[Gal(b1-4)GlcNAc(b1-6)]Man(a1-6)[Gal(b1-4)GlcNAc(b1-2)Man(a1-3)]Man(b1-4)GlcNAc(b1-4)[Fuc(a1-6)]GlcNAc
# How it was run: as §1
# [6] = biological target: Gal(b1-4)GlcNAc(b1-2)[Gal(b1-4)GlcNAc(b1-6)]Man(a1-6)[GlcNAc(b1-4)][Gal(b1-4)GlcNAc(b1-2)Man(a1-3)]Man(b1-4)GlcNAc(b1-4)GlcNAc
# How it was run: as §1
# [7] = biological target: Gal(b1-4)GlcNAc(b1-2)[Gal(b1-4)GlcNAc(b1-6)]Man(a1-6)[GlcNAc(b1-4)][Gal(b1-4)GlcNAc(b1-2)[Gal(b1-4)GlcNAc(b1-4)]Man(a1-3)]Man(b1-4)GlcNAc(b1-4)[Fuc(a1-6)]GlcNAc
# How it was run: as §1
# [8] = biological target: Gal(b1-4)GlcNAc(b1-3)Gal(b1-3)GalNAc
# How it was run: as §1
# [9] = biological target: Gal(b1-4)GlcNAc(b1-3)Gal(b1-3)GlcNAc
# How it was run: as §1
# [10] = biological target: Gal(b1-4)GlcNAc(b1-3)Gal(b1-4)Glc
# How it was run: as §1
# [11] = biological target: Gal(b1-4)GlcNAc(b1-3)Gal(b1-4)GlcNAc
# How it was run: as §1
# [12] = biological target: Gal(b1-4)GlcNAc(b1-3)Gal(b1-4)GlcNAc(b1-2)Man(a1-3)[Gal(b1-4)GlcNAc(b1-3)Gal(b1-4)GlcNAc(b1-2)Man(a1-6)]Man(b1-4)GlcNAc(b1-4)GlcNAc
# How it was run: as §1
# [13] = biological target: Gal(b1-4)GlcNAc(b1-3)Gal(b1-4)GlcNAc(b1-2)Man(a1-3)[Gal(b1-4)GlcNAc(b1-3)Gal(b1-4)GlcNAc(b1-2)Man(a1-6)]Man(b1-4)GlcNAc(b1-4)[Fuc(a1-6)]GlcNAc
# How it was run: as §1
# [14] = biological target: Gal(b1-4)GlcNAc(b1-3)Gal(b1-4)GlcNAc(b1-2)[Gal(b1-4)GlcNAc(b1-3)Gal(b1-4)GlcNAc(b1-6)]Man(a1-6)[Gal(b1-4)GlcNAc(b1-3)Gal(b1-4)GlcNAc(b1-2)Man(a1-3)]Man(b1-4)GlcNAc(b1-4)GlcNAc
# How it was run: as §1
# [15] = biological target: Gal(b1-4)GlcNAc(b1-3)Gal(b1-4)GlcNAc(b1-2)[Gal(b1-4)GlcNAc(b1-3)Gal(b1-4)GlcNAc(b1-6)]Man(a1-6)[Gal(b1-4)GlcNAc(b1-3)Gal(b1-4)GlcNAc(b1-2)Man(a1-3)]Man(b1-4)GlcNAc(b1-4)[Fuc(a1-6)]GlcNAc
# How it was run: as §1
# [16] = biological target: Gal(b1-4)GlcNAc(b1-3)Gal(b1-4)GlcNAc(b1-3)Gal(b1-4)GlcNAc
# How it was run: as §1
# [17] = biological target: Gal(b1-4)GlcNAc(b1-3)Gal(b1-4)GlcNAc(b1-3)Gal(b1-4)GlcNAc(b1-2)Man(a1-3)[Gal(b1-4)GlcNAc(b1-3)Gal(b1-4)GlcNAc(b1-3)Gal(b1-4)GlcNAc(b1-2)Man(a1-6)]Man(b1-4)GlcNAc(b1-4)GlcNAc
# How it was run: as §1
# [18] = biological target: Gal(b1-4)GlcNAc(b1-3)Gal(b1-4)GlcNAc(b1-3)Gal(b1-4)GlcNAc(b1-2)Man(a1-3)[Gal(b1-4)GlcNAc(b1-3)Gal(b1-4)GlcNAc(b1-3)Gal(b1-4)GlcNAc(b1-2)Man(a1-6)]Man(b1-4)GlcNAc(b1-4)[Fuc(a1-6)]GlcNAc
# How it was run: as §1
# [19] = biological target: Gal(b1-4)GlcNAc(b1-3)Gal(b1-4)GlcNAc(b1-3)Gal(b1-4)GlcNAc(b1-2)[Gal(b1-4)GlcNAc(b1-3)Gal(b1-4)GlcNAc(b1-3)Gal(b1-4)GlcNAc(b1-6)]Man(a1-6)[Gal(b1-4)GlcNAc(b1-3)Gal(b1-4)GlcNAc(b1-3)Gal(b1-4)GlcNAc(b1-2)Man(a1-3)]Man(b1-4)GlcNAc(b1-4)[Fuc(a1-6)]GlcNAc
# How it was run: as §1
# [20] = biological target: Gal(b1-4)GlcNAc(b1-3)Gal(b1-4)GlcNAc(b1-3)Gal(b1-4)GlcNAc(b1-3)Gal(b1-4)GlcNAc(b1-2)Man(a1-3)[Gal(b1-4)GlcNAc(b1-3)Gal(b1-4)GlcNAc(b1-3)Gal(b1-4)GlcNAc(b1-3)Gal(b1-4)GlcNAc(b1-2)Man(a1-6)]Man(b1-4)GlcNAc(b1-4)GlcNAc
# How it was run: as §1
# [21] = biological target: Gal(b1-4)GlcNAc(b1-3)Gal(b1-4)GlcNAc(b1-3)Gal(b1-4)GlcNAc(b1-3)Gal(b1-4)GlcNAc(b1-2)Man(a1-3)[Gal(b1-4)GlcNAc(b1-3)Gal(b1-4)GlcNAc(b1-3)Gal(b1-4)GlcNAc(b1-3)Gal(b1-4)GlcNAc(b1-2)Man(a1-6)]Man(b1-4)GlcNAc(b1-4)[Fuc(a1-6)]GlcNAc
# How it was run: as §1
# [22] = biological target: Gal(b1-4)GlcNAc(b1-3)Gal(b1-4)GlcNAc(b1-3)Gal(b1-4)GlcNAc(b1-3)Gal(b1-4)GlcNAc(b1-2)[Gal(b1-4)GlcNAc(b1-3)Gal(b1-4)GlcNAc(b1-3)Gal(b1-4)GlcNAc(b1-3)Gal(b1-4)GlcNAc(b1-6)]Man(a1-6)[Gal(b1-4)GlcNAc(b1-3)Gal(b1-4)GlcNAc(b1-3)Gal(b1-4)GlcNAc(b1-3)Gal(b1-4)GlcNAc(b1-2)Man(a1-3)]Man(b1-4)GlcNAc(b1-4)[Fuc(a1-6)]GlcNAc
# How it was run: as §1
# [23] = biological target: Gal(b1-4)GlcNAc(b1-3)Gal(b1-4)GlcNAc(b1-3)Gal(b1-4)GlcNAc(b1-3)Gal(b1-4)GlcNAc(b1-3)Gal(b1-4)GlcNAc(b1-2)Man(a1-3)[Gal(b1-4)GlcNAc(b1-3)Gal(b1-4)GlcNAc(b1-3)Gal(b1-4)GlcNAc(b1-3)Gal(b1-4)GlcNAc(b1-3)Gal(b1-4)GlcNAc(b1-2)Man(a1-6)]Man(b1-4)GlcNAc(b1-4)GlcNAc
# How it was run: as §1
binder,measurement,setting,value
rMpL (Macrolepiota procera) (protein) MSTQVSSGRTYKITNVIAGTVIDLSGEDNKSIIGYPYHSGKNQQWTFNWTGKAWTLRSASSGSYLGIEGTPAGGTRLVAVNDPFEWHIWRDEANENAFRIFVPFTNYNLDLSGYGDTTPGTPVQLWWTWEGLHQTWTIDRP,glycan array binding signal (z-score),[1],4.13
same,glycan array binding signal (z-score),[2],1.46
same,glycan array binding signal (z-score),[3],2.08
same,glycan array binding signal (z-score),[4],1.74
same,glycan array binding signal (z-score),[5],2.3
same,glycan array binding signal (z-score),[6],1.09
same,glycan array binding signal (z-score),[7],2.28
same,glycan array binding signal (z-score),[8],-0.368
same,glycan array binding signal (z-score),[9],0.138
same,glycan array binding signal (z-score),[10],0.454
same,glycan array binding signal (z-score),[11],0.366
same,glycan array binding signal (z-score),[12],1.67
same,glycan array binding signal (z-score),[13],1.98
same,glycan array binding signal (z-score),[14],1.23
same,glycan array binding signal (z-score),[15],3.75
same,glycan array binding signal (z-score),[16],0.811
same,glycan array binding signal (z-score),[17],2.64
same,glycan array binding signal (z-score),[18],3.14
same,glycan array binding signal (z-score),[19],4.71
same,glycan array binding signal (z-score),[20],3.24
same,glycan array binding signal (z-score),[21],3.33
same,glycan array binding signal (z-score),[22],4.7
same,glycan array binding signal (z-score),[23],2.97
